ChEMBL document CHEMBL4888484, “Replenishing the malaria drug discovery pipeline: Screening and hit evaluation of the MMV Hit Generation Library 1 (HGL1) against asexual blood stage Plasmodium falciparum ,using a nano luciferase reporter read-out” (2022)
In all, about 150,000 compounds went through this assay and about 540 (0.36%) showed an effect of 50% or more. The list shows a part of the results.

System: Plasmodium falciparum
Test: Primary screen in NF54 nanoGlo assay, in single point, at 2uM, 72h; a lower Z score goes with more inhibition
Assay type: functional, Erythrocyte
Details: timepoint 72 hour

Q: What does the source list for `CC1CCCC(C)N1C(=O)Cn1nccc1C(N)=O` (stereo unspecified)?
A: % Inhibition: -11%; Z score: 1.1

Q: For `CC1(C)CN(C(=O)c2c(O)cnc3c(F)cccc23)C1C1CCCO1` (stereo unspecified), which “% Inhibition” value is on record?
A: -4%

Q: And the Z score?
A: 0.64

Q: What does the source list for `CCC[C@H]1CN(c2nc(N(C)C)nc3c2CCCC3)C[C@@H]1NS(C)(=O)=O`?
A: % Inhibition: -1%; Z score: 0.17

Q: What does the source list for `CCO[C@H]1COCC[C@@H]1NC(=O)c1ccn2nnnc2c1`?
A: % Inhibition: 6%; Z score: -1.1

Q: What does the source list for `Cn1nc(CC(=O)NS(=O)(=O)C2C[C@@H]3CC[C@H]2C3)c2ccccc21` (stereo partly specified)?
A: % Inhibition: 6%; Z score: -0.85

Q: What does the source list for `Cc1cc(C(=O)N[C@@H](C)c2nc(-c3cccnc3)cs2)cc(O)n1`?
A: % Inhibition: 51%; Z score: -3.53

Q: For `Cc1cc(C(F)(F)F)n(C[C@@H](C)CNC(=O)CN2C(=O)CNC2=O)n1`, which “% Inhibition” value is on record?
A: -2%

Q: And the Z score?
A: 0.46

Q: With `CN1C(=O)N[C@]2(CCN(C(=O)c3cnn4ccccc34)C2)C1=O` as the compound, how does the “% Inhibition” value read?
A: -6%

Q: And the Z score?
A: 0.95

Q: `C[C@H]1Cc2[nH]ncc2CN(c2ncnc3c(F)cccc23)C1` was tested. Which “% Inhibition” value did it give?
A: 12%

Q: And the Z score?
A: -1.71

Q: With `CCc1nc[nH]c1C(=O)N1CCN(C(=O)c2cccc(OC)c2)CC1` as the compound, how does the “% Inhibition” value read?
A: -2%

Q: What about the Z score of the same compound?
A: 0.32

Q: Which “% Inhibition” value does the source give for `O=C(NCc1ccncc1)c1ccc(NC(=O)c2ccoc2)cc1` here?
A: 28%

Q: What about the Z score of the same compound?
A: -3.22

Q: How did the “% Inhibition” value turn out when `O=C(NCC1(Cn2cccn2)CC1)c1ncc[nH]1` was run?
A: -1%

Q: And the Z score?
A: 0.1

Q: For `COC[C@@H]1[C@H](C(=O)N2CCN(c3ccc(OC)cc3)CC2)CCCN1Cc1ccccc1`, which “% Inhibition” value is on record?
A: -15%

Q: And the Z score?
A: 1.82

Q: For `CC(=O)N1CCC(N[C@H]2C[C@@H](Cc3cc(CN4CCN(c5ccccc5)CC4)on3)C2(C)C)CC1`, which “% Inhibition” value is on record?
A: -8%

Q: What about the Z score of the same compound?
A: 1.07

Q: With `Cc1nc(-c2ccc[nH]2)n(-c2ccc(F)cc2)n1` as the compound, how does the “% Inhibition” value read?
A: -4%

Q: What about the Z score of the same compound?
A: 0.53

Q: What does the source list for `C[C@@H](Cc1ccc2ccccc2c1)NS(=O)(=O)CC1CCOCC1`?
A: % Inhibition: -8%; Z score: 0.76

Q: For `CN1CC2(CCN(C(=O)c3ccc(Cl)cn3)CC2)CC1=O`, which “% Inhibition” value is on record?
A: -9%

Q: And the Z score?
A: 1.06

Q: With `O=C1C[C@H](CNCc2ccc(OCC(F)F)cc2)CN1C1CC1` as the compound, how does the “% Inhibition” value read?
A: -16%

Q: And the Z score?
A: 2.31

Q: With `c1cc2nnnn2nc1N(CC1CCCCC1)C1CC1` as the compound, how does the “% Inhibition” value read?
A: 15%

Q: What about the Z score of the same compound?
A: -1.97

Q: Which “% Inhibition” value does the source give for `CC(CNC(=O)N1CC[C@H](O)[C@@H]1C)c1ccc(Br)cc1` (stereo partly specified) here?
A: -15%

Q: What about the Z score of the same compound?
A: 2.94

Q: For `CCc1nnc(CN(C)C(=O)CCc2cn[nH]c2)o1`, which “% Inhibition” value is on record?
A: -6%

Q: And the Z score?
A: 1.26

Q: How did the “% Inhibition” value turn out when `C[C@H](NC(=O)N1CCC(c2cncn2C)CC1)c1ccn(C)n1` was run?
A: -1%

Q: And the Z score?
A: 0.19

Q: How did the “% Inhibition” value turn out when `CCn1cc(NC(=O)C2CCN(c3nc(C)nc(C)c3C)CC2)cn1` was run?
A: -12%

Q: What about the Z score of the same compound?
A: 1.06

Q: For `Cc1ccc(C(=O)N(CCN(C)C)Cc2cc3ccc(F)cc3nc2-c2ccccc2C)cc1`, which “% Inhibition” value is on record?
A: 22%

Q: And the Z score?
A: -2.82

Q: Which results are given for `CC(NC(=O)c1ccc(-n2cnnn2)cc1)C1CCCO1` (stereo unspecified)?
A: % Inhibition: -3%; Z score: 0.58

Q: With `Cc1noc(C)c1C(=O)NS(=O)(=O)Cc1ccc(Cl)c(F)c1` as the compound, how does the “% Inhibition” value read?
A: -7%

Q: What about the Z score of the same compound?
A: 0.84

Q: Which results are given for `COC(=O)c1ccc(CN(C)C(=O)c2cc(C)sn2)nc1`?
A: % Inhibition: -4%; Z score: 0.45

Q: Which results are given for `C=CCNC(=O)Nc1ccccc1N1CCCN(Cc2ccccc2Cl)C1=O`?
A: % Inhibition: -8%; Z score: 0.96

Q: For `Cc1noc2ccc(CN3CCc4[nH]nc(Cc5cccs5)c4C3)cc12`, which “% Inhibition” value is on record?
A: 4%

Q: And the Z score?
A: -0.54

Q: How did the “% Inhibition” value turn out when `Cc1nc(-c2cccc(F)c2)nc(N2CCN(C(=O)c3ccccc3)CC2)c1C` was run?
A: -17%

Q: And the Z score?
A: 1.63

Q: With `Cc1cc(C(=O)NCC2(c3ccccn3)CC2)n(C)n1` as the compound, how does the “% Inhibition” value read?
A: 3%

Q: And the Z score?
A: -0.3

Q: Which results are given for `C1=C(Cn2nnnc2N2CCC3(CC2)OCCCO3)CCCC1`?
A: % Inhibition: -1%; Z score: 0.2

Q: Which results are given for `NS(=O)(=O)c1ccc(Cl)cc1Cl`?
A: % Inhibition: -5%; Z score: 0.64

Q: Which results are given for `CC1CC(C)CN(C(=O)CCC(=O)NCCc2ccc(Cl)cc2)C1` (stereo unspecified)?
A: % Inhibition: 30%; Z score: -3.87

Q: `O=C(c1cc(-c2ccc3c(c2)CCO3)no1)N1CCN(C2CCC2)CC1` was tested. Which “% Inhibition” value did it give?
A: -5%

Q: And the Z score?
A: 0.89

Q: For `Cc1noc(/C=C/c2ccccc2OCCN2CCCCC2)n1`, which “% Inhibition” value is on record?
A: -1%

Q: And the Z score?
A: 0.14

Q: `CN(C(=O)CCc1ccccc1)C1CCN(c2ccccn2)CC1` was tested. Which “% Inhibition” value did it give?
A: -4%

Q: And the Z score?
A: 0.63

Q: How did the “% Inhibition” value turn out when `Cc1ccoc1C(=O)N[C@H](c1ccc(Cl)cc1)c1ncon1` was run?
A: -6%

Q: What about the Z score of the same compound?
A: 0.68

Q: How did the “% Inhibition” value turn out when `CCCCS(=O)(=O)N1CC(S(C)(=O)=O)C1` was run?
A: 4%

Q: What about the Z score of the same compound?
A: -0.81

Q: What does the source list for `O=C(C[C@H](c1nc2ccccc2c(=O)[nH]1)c1nc2ccccc2s1)NCc1ccc2c(c1)OCO2`?
A: % Inhibition: -5%; Z score: 0.86

Q: With `CC(C)(C(=O)Nc1cc2c([nH]c1=O)CCCC2)[C@H](N)c1ccccc1` as the compound, how does the “% Inhibition” value read?
A: -14%

Q: What about the Z score of the same compound?
A: 1.51

Q: How did the “% Inhibition” value turn out when `Cc1ccc(S(=O)(=O)N2CCN(c3nc(Cc4ccccc4)nc4c3c(C)nn4-c3ccccc3)CC2)cc1` was run?
A: -4%

Q: And the Z score?
A: 0.59

Q: Which “% Inhibition” value does the source give for `CCn1ncc(CN2CCC[C@H](OCc3noc(C)n3)C2)c1C` here?
A: 5%

Q: What about the Z score of the same compound?
A: -0.75

Q: What does the source list for `CC(C)(C)c1ccc(CN2C(=O)[C@@H]3CCCN3C2=O)cc1`?
A: % Inhibition: -14%; Z score: 1.2

Q: Which “% Inhibition” value does the source give for `Cn1cc(-c2nc([C@@H]3CCCCCN3C(=O)c3cc(C4CC4)[nH]n3)no2)cn1` here?
A: -13%

Q: And the Z score?
A: 1.47

Q: With `CC1CCCCC1OCCOC(=O)c1cc(-n2ccnc2)ccn1` (stereo unspecified) as the compound, how does the “% Inhibition” value read?
A: 8%

Q: What about the Z score of the same compound?
A: -0.95

Q: `Cc1[nH]nc(CCC(=O)N2CCC(C)(C#N)CC2)c1C` was tested. Which “% Inhibition” value did it give?
A: -16%

Q: And the Z score?
A: 2.35

Q: Which “% Inhibition” value does the source give for `Cc1cnc(N2CCC(N(C)C)CC2)nc1N(C)C` here?
A: 0%

Q: And the Z score?
A: 0.05

Q: With `CC(C)N1C[C@@H](c2nc(-c3ccccc3)c(-c3ccccc3)[nH]2)CC1=O` as the compound, how does the “% Inhibition” value read?
A: 3%

Q: What about the Z score of the same compound?
A: -0.33

Q: Which “% Inhibition” value does the source give for `FC(F)(F)c1ccc(CN2CC[C@H](c3nc4ccccc4s3)C2)cc1` here?
A: -5%

Q: What about the Z score of the same compound?
A: 0.7

Q: For `COc1ccc(-c2noc(N3CCN(c4cc(Cl)ccc4C)CC3)n2)cc1`, which “% Inhibition” value is on record?
A: -4%

Q: And the Z score?
A: 0.53

Q: For `COc1ccc(F)cc1C(NC(=O)c1csc(C)n1)[C@H]1C[C@@H](O)C1` (stereo partly specified), which “% Inhibition” value is on record?
A: 6%

Q: What about the Z score of the same compound?
A: -0.95

Q: For `O=C(NCc1ccc(CNC(=O)C(Cl)(Cl)Cl)cc1)C(Cl)(Cl)Cl`, which “% Inhibition” value is on record?
A: -8%

Q: What about the Z score of the same compound?
A: 1.05
